We go through 85 compounds from PubChem BioAssay AID1346428 (National Center for Advancing Translational Sciences (NCATS), 2018).

Where “and” joins values, the source holds several entries; their conditions need not be identical. Equal entries are not always repeated. The whole screen tested about 48,000 compounds, of which about 1,200 (2.5%) were called active. Roughly 2% stayed inconclusive and do not appear here.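 How the source made its calls: active means activation of at least 60% and not above a set upper limit (about 1 call in 100 departs from these limits); inconclusive means activation of 40% to 60%, or above that upper limit; inactive means activation under 40%.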 Some of the results follow.

Sequence of UniProt O75388 (O75388 whole entry, looked up): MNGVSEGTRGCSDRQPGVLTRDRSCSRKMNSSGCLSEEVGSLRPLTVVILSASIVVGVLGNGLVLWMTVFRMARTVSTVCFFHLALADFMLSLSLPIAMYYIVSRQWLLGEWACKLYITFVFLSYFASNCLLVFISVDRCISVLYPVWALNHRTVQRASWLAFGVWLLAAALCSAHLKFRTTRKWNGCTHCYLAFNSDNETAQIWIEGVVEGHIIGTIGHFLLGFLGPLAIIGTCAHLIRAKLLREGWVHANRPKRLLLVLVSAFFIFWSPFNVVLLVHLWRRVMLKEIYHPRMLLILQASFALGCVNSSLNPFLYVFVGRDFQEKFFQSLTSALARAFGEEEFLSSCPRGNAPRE

For the assay, the target named is Probable G-protein coupled receptor 32 (Homo sapiens) (UniProt O75388). As to the kind of experiment: qHTS for Agonists of Human Resolvin D1 Receptor DRV1. Further: 0% is about no effect. The settings on record: CHO-K1 GPR32 beta-arrestin PathHunter luminescence, 90 min; at 76.9 µM; stronger effect = higher value; zero percent set by DMSO-only wells. The method, boiled down:
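Cells are plated overnight, treated with compounds in DMSO for 90 minutes at 37 °C, and developed with PathHunter detection reagent for 1 hour before luminescence is read; signal reflects beta-arrestin binding to GPR32 in engineered CHO-K1 cells.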
On to `CCOc1ccc(NC(=O)CC2C(=O)N(c3ccc(OC)cc3)C(=O)N2CCC2=CCCCC2)cc1` (stereo not given), for which the activation was inactive: -7.69%.

For `COc1ccc(C)cc1NC(=O)N(C(C)C)C1CCN(C(C)=O)CC1`, the activation was inactive: -5.19%.

`Cc1ccc(N2CCN(c3nc4ccc(C(=O)c5ccccc5)cc4n4cnnc34)CC2)c(C)c1`: the activation is inactive: -24%.

Consider `COc1ccccc1Nc1nn2c(=O)c3ccc(C(=O)NCCc4ccccc4)cc3nc2s1`, for which the activation was inactive: 11.4%.

As for `O=C(O)c1cc(-c2ccccc2)nn1Cc1ccccc1`, the activation was inactive: 15.7%.

With `COc1ccc(C(C)=O)cc1CSc1nc(Nc2ccc(F)c(F)c2)c2ccccc2n1`, the activation is inactive: -17.1%.

Consider `Cc1cc(C)cc(NC(=O)C(=O)NCCc2sc(-c3cccc(F)c3)nc2C)c1`, for which the activation was inactive: 2.71%.

On to `Cc1ccn2c(Nc3ccccc3)c(-c3c[nH]c4ccccc34)nc2c1`, for which the activation is inactive: -4.28%.

With `CC(=O)Nc1ccc(NC(=O)c2ccc3c(c2)CCN3S(=O)(=O)c2ccc(C)cc2)cc1`, the activation is inactive: 3.51%.

Take `CCOc1ccc(C(c2c(O)cc(C)n(Cc3ccco3)c2=O)N2CCN(C)CC2)cc1` (stereo not given): the activation was inactive: -18.2%.

For `CC1CCN(C(=O)Cn2cc(SCC(=O)NCc3ccccc3)c3ccccc32)CC1`, the activation was inactive: -24.7%.

Regarding `CCOc1ccc(-c2cn3c(n2)sc2cc(C(=O)NC(C)C45CC6CC(CC(C6)C4)C5)ccc23)cc1` (stereo not given), the activation was inactive: -2.73%.

Turning to `CCC(Sc1nnc(-c2ccc(F)cc2)c(-c2ccc(F)cc2)n1)C(=O)NC1CCCC1` (stereo not given), the activation was inactive: -24.2%.

As to `CCc1nnc(NC(=O)c2nc(SCc3cccc(C)c3)ncc2Cl)s1`, the activation was inactive: 44.1%.

Take `O=S(=O)(c1ccccc1)n1nc(-c2ccco2)nc1NCc1ccccc1`: the activation was inactive: -18.2%.

`Cc1cccc(-n2ncc3c(NCCOCCO)ncnc32)c1`: the activation was inactive: 6.91%.

As to `O=C(CSc1nc2c([nH]c3ccccc32)c(=O)n1-c1ccccc1F)Nc1cccc(Cl)c1`, the activation was inactive: -23.6%.

As to `CCC(=O)N1CCc2cc(S(=O)(=O)CCC(=O)Nc3cc(Cl)ccc3OC)ccc21`, the activation is inactive: 1.92%.

For `COc1cccc(N2CC(NC(=O)/C=C\c3ccccc3)CC2=O)c1` (stereo not given), the activation is inactive: -12.3%.

As to `Cc1cccc(Cn2c(CN3CCC(C(=O)NC(C)C)CC3)cc3ccccc32)c1`, the activation was inactive: 17.9%.

As to `COc1ccc(CNC(=O)C2CCN(S(=O)(=O)c3cccc(-c4noc(C)n4)c3)CC2)cc1`, the activation is inactive: -0.0452%.

Consider `COc1ccc(C2C(C(=O)Nc3ccccc3)=C(C)Nc3nc(-c4ccc(Cl)cc4)nn32)cc1` (stereo not given), for which the activation was inactive: -5.18%.

Turning to `Cc1ccccc1CNCCCSc1nnnn1C`, the activation was inactive: 1.47%.

With `Cc1ccc(NC(=O)CSCc2cc(=O)c3ccccc3[nH]2)c(C)c1`, the activation was inactive: 16%.

In the case of `CCOc1ccc(CNC(=O)c2cc3c(=O)oc4ccc(C)cc4c3s2)cc1`, the activation is inactive: -7.15%.

As to `Cc1ccc(-n2c(=O)c3c(C)c(C(=O)N(C)C)sc3n(Cc3ccccc3C)c2=O)cc1C`, the activation was inactive: -18.1%.

For the compound `COc1ccc(-c2cn3c(n2)sc2cc(C(=O)NCCCN4CCN(C)CC4)ccc23)cc1`, the activation is inactive: -0.0473%.

Take `CCCOc1ccc(C2C(=O)N(C3CCCCC3)CC(=O)N2C2CCCCC2)cc1OC` (stereo not given): the activation was inactive: -6.55%.

For the compound `O=C(COCc1cc(-c2ccc(F)cc2)on1)Nc1cccc(C(F)(F)F)c1`, the activation was inactive: 5.43%.

On to `COc1ccc(Cn2c(CO)cnc2SCc2ccccc2)cc1`, for which the activation is inactive: 48.1%.

In the case of `Cc1cccc(Nc2nc(-c3ccccc3)nc3ccccc23)c1`, the activation is active: 110%.

Consider `COCCNC(=O)c1ccc(Cn2c(SCC(N)=O)nc3ccccc3c2=O)cc1`, for which the activation was inactive: -2.89%.

For `O=S1(=O)OC(c2ccc(O)cc2)(c2ccc(O)cc2)c2ccccc21`, the activation is inactive: -69.1%.

With `Cc1cc(=O)n2nc(N3CCC(C(=O)Nc4ccc(Br)c(C)c4)CC3)sc2n1`, the activation is inactive: 9.21%.

Turning to `COc1cccc(OCCSc2nc3ccccc3n2CC(=O)N2CCOCC2)c1`, the activation is inactive: -7.41%.

On to `COc1ccc2c(CNC3CCC(C)CC3)c(C(=O)O)n(Cc3ccc(F)cc3)c2c1` (stereo not given), for which the activation is active: 91.1%.

Regarding `Cc1ccc(N(Cc2cccs2)C(=O)c2ccc(OC(C)C)cc2)cc1`, the activation is inactive: -17.4%.

On to `CCOc1ccccc1C(=O)NCc1ccc2c(c1)CCN2C(=O)c1ccc(F)cc1`, for which the activation is inactive: 1.03%.

For `Cn1c(SCc2ccc(F)cc2)nc2ccc(C(=O)NCc3cccc(Cl)c3)cc21`, the activation is inactive: -9.96%.

Take `CCN(C(=O)c1c(C)oc2ncnc(N3CCCCC3)c12)c1cc(C)ccc1C`: the activation was inactive: -3.95%.

For the compound `CCOC(=O)c1ccccc1NC(=O)CSc1ccc(-c2sc(C)nc2C)nn1`, the activation was inactive: 7.57%.

On to `COc1ccc(-c2noc(CN(C(=O)c3ccc(C)cc3C)C(C)C)n2)cc1`, for which the activation is inactive: -2.11%.

As to `Cc1ccc(C(=O)NCCc2csc(-c3cccc(F)c3)n2)cc1C`, the activation is active: 60.5%.

As for `CCOC(=O)c1cccc(NC(=O)COc2ccc3c(C)cc(=O)oc3c2)c1`, the activation was inactive: -4.69%.

Turning to `CCOC(=O)c1cnc2c(ccc3ccccc32)c1Nc1ccccc1O`, the activation is inactive: 10.7%.

For `COc1ccc(C2CC(=O)Nc3c2c(C)nn3-c2nncc(-c3ccccc3)n2)c(OC)c1OC` (stereo not given), the activation was inactive: 8.68%.

For the compound `COc1cc2nc(NCCc3cccc(C)c3)n3nc(-c4ccccc4)nc3c2cc1OC`, the activation was inactive: 26%.

Consider `CCOc1ccccc1C(=O)Nc1cccc(-c2nc3ccccc3s2)c1`, for which the activation is inactive: -0.118%.

Take `Cc1cc(C)cc(NC(=O)NCc2noc3ccccc23)c1`: the activation is inactive: -0.982%.

`CCC(=O)N1CCCc2cc(S(=O)(=O)N3CCC(C(=O)NC4CCC(C)CC4)CC3)ccc21` (stereo not given): the activation is inactive: -0.767%.

In the case of `O=C(OCc1cc(=O)n2nc(C3CC3)sc2n1)c1cccc(NC(=O)c2ccccc2Cl)c1`, the activation was inactive: 1.84%.

In the case of `Cc1ccc(C)c(NC(=O)c2cnc(N3CCCC3)nc2C)c1`, the activation was inactive: 3.04%.

Consider `COc1ccccc1/C=C/c1nc(C#N)c(NCc2ccccc2)o1`, for which the activation was inactive: -27.5%.

Consider `COc1ccc(-c2cn3c(n2)sc2cc(C(=O)NCCc4ccccc4)ccc23)cc1`, for which the activation was inactive: 10.2%.

For `CCc1ccccc1N(CC)C(=O)c1cc2c(s1)-c1ccccc1SC2`, the activation is inactive: 10.6%.

In the case of `Cc1cccc(CNC(=O)C2CCN(c3nn4cc(-c5ccc(F)cc5)nc4s3)CC2)c1`, the activation was inactive: 6.12%.

In the case of `COc1ccc(-n2ncc(C(=O)NCc3cccs3)c2C2CCN(C(=O)OC(C)(C)C)CC2)cc1`, the activation was inactive: -9.76%.

Regarding `O=C(Cc1ccc(Cl)cc1)NC1CC(=O)N(c2ccc3c(c2)OCCO3)C1` (stereo not given), the activation is inactive: -0.218%.

On to `COCCOC(=O)C1=C(C)NC(C)=C(C(=O)OC/C=C/c2ccccc2)C1c1cccc([N+](=O)[O-])c1` (stereo not given), for which the activation is inactive: -25.9% and inactive: -28.1%.

Take `Cc1ccccc1C(=O)N1CCC(c2nc(-c3ccc(S(=O)(=O)N4CCCC4)cc3)no2)CC1`: the activation was inactive: 0.163%.

Consider `Cc1ccsc1CN(Cc1ccco1)c1cnc(S(C)(=O)=O)nc1C(=O)Nc1ccc(Cl)cc1`, for which the activation is inactive: -13.8%.

On to `Cn1c(=O)oc2cc(S(=O)(=O)CCC(=O)NCc3ccc(Cl)cc3)ccc21`, for which the activation was inactive: -12.4%.

As to `Clc1cccc(Nc2ncnc3c2nc2n3CCCCC2)c1`, the activation is inactive: 1.93%.

For the compound `Cc1ccc(NC(=O)N2CC=C(c3c[nH]c4ccccc34)CC2)cc1Cl`, the activation is inactive: -4.26%.

With `CC1CCN(C(=O)CN2CC(C)Sc3ccccc32)CC1` (stereo not given), the activation was inactive: -9.45%.

Take `CCOCCn1ccc2c(OCC(=O)Nc3cc(C)cc(C)c3)cccc2c1=O`: the activation is inactive: 35.7%.

Consider `COc1ccc(-c2cn3nc(SCC(=O)Nc4cccc(C)c4C)ccc3n2)cc1`, for which the activation is inactive: -7.45%.

For the compound `COc1ccc(Nc2nc3ccccc3n3c(N)nnc23)cc1`, the activation was inactive: -9.85%.

As for `Cc1ccc(NS(=O)(=O)c2ccc(-n3cccn3)cc2)c(Br)c1`, the activation was active: 71.7%.

Take `Cc1cccc(C(=O)Nc2ccc(OCc3cc(=O)n4ccc(C)cc4n3)cc2)c1`: the activation is inactive: 2.5%.

On to `CCC(Nc1ccc(-c2nc(-c3ccccn3)no2)cc1[N+](=O)[O-])c1ccccc1` (stereo not given), for which the activation was inactive: -11.5%.

In the case of `COc1cc2c(cc1OC)C(COc1cc(C)cc(C)c1)N(C(=O)C(C)(C)C)CC2` (stereo not given), the activation is inactive: -3.16%.

In the case of `CCCCN(C)C(=O)CCC(=O)NNc1nc2ccccc2c2nc(C)nn12`, the activation is inactive: -14%.

Take `Cc1ccc(C(c2sc3nc(-c4ccco4)nn3c2O)N2CCN(c3ccc(F)cc3)CC2)cc1` (stereo not given): the activation is inactive: -2.73%.

For the compound `COc1cc2c(C(=O)N(C)c3cccc(C(F)(F)F)c3)cn(CC(C)C)c(=O)c2cc1OC`, the activation was inactive: -11.4%.

On to `Cc1cccc(N2CCn3c2nc2c3c(=O)n(CCCc3ccccc3)c(=O)n2C)c1`, for which the activation was inactive: -3.6%.

Take `Cc1oc(-c2cccc(Cl)c2)nc1Cn1c(SCc2ccc(F)cc2)nc2cccnc21`: the activation was inactive: -19.9%.

Regarding `COc1cc(CN(C(=O)COc2ccccc2)c2ccccn2)cc(OC)c1OC`, the activation is inactive: -7.32%.

Turning to `Cc1ccc(C2CC(=O)Nc3c2c(C)nn3-c2nc(C)cc(C)n2)c(C)c1` (stereo not given), the activation was inactive: -3.53%.

Take `O=C(CCCCCn1c(=O)c2sccc2n(CC(=O)Nc2ccccc2F)c1=O)NCc1ccc2c(c1)OCO2`: the activation was inactive: -24.8%.

With `CCC(C)OC(=O)/C(C#N)=C/c1ccc(-c2ccc(Br)cc2)o1` (stereo not given), the activation was inactive: -2.59%.

As to `Cc1cc2n(n1)CCCN2C(=O)Nc1ccccc1C(F)(F)F`, the activation was inactive: -17.7%.

Take `CCc1ccc(S(=O)(=O)c2nnn3c2nc(N(CC)Cc2ccccc2)c2cc(Cl)ccc23)cc1`: the activation was inactive: 4.66%.

`CN(C)C(=O)c1ccc(S(=O)(=O)NCc2ccc(Cl)cc2)s1`: the activation was inactive: -19.4%.

For the compound `CCCCN(CC)C(=O)CSc1nc2c(sc3ccccc32)c(=O)n1CCc1ccccc1`, the activation was inactive: 40.5%.
